# Measured values as given in patent US20210269542A1 (POTENZA THERAPEUTICS, published 2021).
# T1: human GITR expressed on cells (human, UniProt Q9Y5U5 26-241)
# T1 sequence: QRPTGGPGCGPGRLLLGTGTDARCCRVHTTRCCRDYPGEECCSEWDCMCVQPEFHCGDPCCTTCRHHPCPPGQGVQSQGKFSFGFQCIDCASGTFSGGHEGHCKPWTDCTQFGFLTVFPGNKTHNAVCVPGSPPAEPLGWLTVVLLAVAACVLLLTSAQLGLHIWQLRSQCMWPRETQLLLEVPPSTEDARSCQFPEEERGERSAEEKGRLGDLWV
# T2: human GITR-Fc (human, UniProt Q9Y5U5 26-162)
# T2 construct: also called recombinant hGITR; wild type human GITR-Fc
# T2 sequence: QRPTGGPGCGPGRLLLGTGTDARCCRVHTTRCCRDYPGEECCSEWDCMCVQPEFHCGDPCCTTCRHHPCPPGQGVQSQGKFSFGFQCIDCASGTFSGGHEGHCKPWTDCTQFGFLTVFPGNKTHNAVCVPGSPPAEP
# T3: cyno GITR-Fc (cynomolgus monkey)
# T3 construct: also called cGITR; cynomolgus GITR
# T3 chain: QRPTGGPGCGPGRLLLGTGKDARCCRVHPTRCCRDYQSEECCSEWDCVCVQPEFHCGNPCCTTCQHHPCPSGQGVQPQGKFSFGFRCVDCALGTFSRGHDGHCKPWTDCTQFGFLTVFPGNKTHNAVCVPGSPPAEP
# B1: ABP19 (antibody, human IgG4 S228P, kappa)
# heavy: QVQLVQSGAEVKKPGSSVKVSCKASGGTFSSYYISWVRQAPGQGLEWMGGIIPVPGTANYAQKFQGRVTITADESTSTAYMELSSLRSEDTAVYYCARAGGGYARGDHYYGMDVWGQGTTVTVSSASTKGPSVFPLAPSSKSTSGGTAALGCLVKDYFPEPVTVSWNSGALTSGVHTFPAVLQSSGLYSLSSVVTVPSSSLGTQTYICNVNHKPSNTKVDKRVEPKSCGGGGSQVQLVQSGAEVKKPGSSVKVSCKASGGTFSSYYISWVRQAPGQGLEWMGGIIPVPGTANYAQKFQGRVTITADESTSTAYMELSSLRSEDTAVYYCARAGGGYARGDHYYGMDVWGQGTTVTVSSASTKGPSVFPLAPCSRSTSESTAALGCLVKDYFPEPVTVSWNSGALTSGVHTFPAVLQSSGLYSLSSVVTVPSSSLGTKTYTCNVDHKPSNTKVDKRV[human IgG4 Fc with S228P (EU numbers) left out]
# light: not shown
# notes: TM format, N-terminal Fab: VH + IgG1 CH1 + GGGGS + VH + IgG4 S228P
# B2: ABP25 (antibody, human IgG4 S228P, kappa)
# heavy: QVQLVQSGAEVKKPGSSVKVSCKASGGTFSSYYISWVRQAPGQGLEWMGGIIPVPGTANYAQKFQGRVTITADESTSTAYMELSSLRSEDTAVYYCARAGGGYARGDHYYGMDVWGQGTTVTVSSASTKGPSVFPLAPCSRSTSESTAALGCLVKDYFPEPVTVSWNSGALTSGVHTFPAVLQSSGLYSLSSVVTVPSSSLGTKTYTCNVDHKPSNTKVDKRV[human IgG4 Fc with S228P (EU numbers) left out]GGGGSGGGGSGGGGSQVQLVQSGAEVKKPGSSVKVSCKASGGTFSSYYISWVRQAPGQGLEWMGGIIPVPGTANYAQKFQGRVTITADESTSTAYMELSSLRSEDTAVYYCARAGGGYARGDHYYGMDVWGQGTTVTVSSASTKGPSVFPLAPSSKSTSGGTAALGCLVKDYFPEPVTVSWNSGALTSGVHTFPAVLQSSGLYSLSSVVTVPSSSLGTQTYICNVNHKPSNTKVDKRVEPKSC
# light: not shown
# Tests used:
# [1] = target: T1, human GITR expressed on cells; experiment: cell-based or functional assay
# [2] = target: T2, human GITR-Fc; experiment: BLI Octet RED384, ABP on AHQ sensor, 100 nM antigen, single concentration;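 also: association and dissociation each tracked over 180 s, with dissociation run in antigen-free buffer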
# [3] = target: T3, cyno GITR-Fc; experiment: as above
Binder,Average EC50 in Human HT1080 (IL-8 induction) [1],Kd [2],Kd [3]
B1,0.25 nM,5.2 nM,12.6 nM
B2,0.46 nM,4.5 nM,11 nM
